Assay results from PubChem BioAssay (NCATS).
The other results are listed elsewhere or left out. Further columns of the screen follow, without active or inactive calls. For some of these results: Most of these compounds were active or inconclusive in the main read-out, so they are no random draw. Words in brackets tell the shape of the fitted curve; partial curves, single points and poor fits give uncertain potencies.

Experiments:
[1] = qHTS drug screen for cell cycle checkpoint inhibitors in PARPi-resistant BRCA-mutant ovarian cancer cell lines. (AID 1963452); conditions: PEO1/OlaR viability, CellTiter-Glo luminescence, 96 h
Procedure, shortened: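 PEO1, PEO4 and PEO1/OlaR ovarian cancer cells, 600 per well, exposed 96 h at 37C to a dilution series. Viability read by CellTiter-Glo luminescence, normalized to DMSO and empty wells; activity summarized as Z-AUC.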

[2] = qHTS for identification of novel therapeutic agents for treatment of microphthalmiaassociated transcription factor (MiT) renal cell carcinoma (RCC) (AID 1963991); conditions: CellTiter-Glo, 48 h; for z-score: stronger effect = lower value
Procedure, shortened: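 Curves over 11 concentrations were fitted to CellTiter-Glo luminescence, scaled between empty wells (0%) and DMSO (100%) viability. Cells were UOK109, UOK124 and UOK145 TFE3-fusion RCC lines at 500/well, exposed 48 hours at 37 C.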

[3] = measured here: PEO1 parental viability
[4] = TFE3-RCC UOK109 viability, measured here: UOK109 Z-AUC
[5] = TFE3-RCC viability, measured here: UOK124 Z-AUC
[6] = TFE3-RCC viability, measured here: UOK124 cell viability
[7] = TFE3-RCC viability, measured here: UOK145 Z-AUC
[8] = TFE3-RCC viability, measured here: UOK145 cell viability
Tags give direction and shape of the fitted curve.

Row | SMILES | AC50 [1, 3] | AC50 ([1]; measured here: PEO4 viability) | z-score [2, 4] | z-score [2, 5] | AC50 [2, 6] | z-score [2, 7] | AC50 [2, 8]
1 | COc1cc(-c2nn(C3CCC(N4CCN(C(C)=O)CC4)CC3)c3ncnc(N)c23)ccc1NC(=O)c1cc2ccccc2n1C (stereo not drawn) | 15.5 µM [falling, partial curve] | 13.8 µM [falling, single point] | -1.13 | -0.0955 | 1.18 µM [falling, partial curve, poor fit] | -0.666 | 1.48 µM [falling, full curve]
2 | Cc1nc2ccc(CN(C)c3ccc(C(=O)N[C@@H](CCC(=O)O)C(=O)O)s3)cc2c(=O)[nH]1 | 0.0389 µM [falling, full curve] | 0.0347 µM [falling, full curve, poor fit] | 0.108 | -1.7 | 0.0833 µM [falling, full curve] | -1.19 | 0.0743 µM [falling, full curve]
3 | Cn1cncc1[C@@](N)(c1ccc(Cl)cc1)c1ccc2c(c1)c(-c1cccc(Cl)c1)cc(=O)n2C | 15.5 µM [falling, single point] | 12.3 µM [falling, partial curve] | -0.401 | -0.828 | 18.7 µM [falling, partial curve] | -0.189 | 23.5 µM [falling, partial curve]
4 | CO[C@@H]1[C@H](N(C)C(=O)c2ccccc2)C[C@H]2O[C@]1(C)n1c3ccccc3c3c4c(c5c6ccccc6n2c5c31)C(=O)NC4 | 7.76 µM [falling, partial curve] | 4.36 µM [falling, full curve] | -0.733 | -0.701 | 1.32 µM [falling, full curve] | -0.367 | 4.18 µM [falling, full curve]
